{"source": "PubChem BioAssay (NCI)", "system": "NCI-H322M lung", "experiment": "inhibition of tumour cell growth, NCI panel, 48 h", "note": "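48-hour exposure; five concentrations; linearly interpolated endpoints. GI50: concentration for 50% inhibition of growth. Definition used: TGI = concentration required for complete inhibition of growth.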"}
{"smiles": "O=C(O)c1ccc(-n2c(=O)n(-c3cccc(C(F)(F)F)c3)c(=O)c3cc(-c4ccc(F)cc4F)ccc32)cc1", "values": [{"measurement": "GI50", "value": 2.96, "unit": "µM"}, {"measurement": "TGI", "value": 17.6, "unit": "µM"}]}
{"smiles": "CN1CCN(c2ccc(Nc3nc(NCCCNS(=O)(=O)c4ccc(Cl)cc4)c4sccc4n3)cc2)CC1", "values": [{"measurement": "GI50", "value": 10.3, "unit": "µM"}, {"measurement": "TGI", "value": 22, "unit": "µM"}]}
{"smiles": "COc1cc(OC)c(S(N)(=O)=O)cc1C(=O)/C=C/c1ccc(Cl)cc1", "values": [{"measurement": "GI50", "value": 2.31, "unit": "µM"}, {"measurement": "TGI", "value": 10.8, "unit": "µM"}]}
{"smiles": "COc1cc2c3c(n(CCCN4CCC[C@H]4C(N)=O)c(=O)c2cc1OC)-c1cc2c(cc1C3=O)OCO2", "values": [{"measurement": "GI50", "value": 0.329, "unit": "µM"}, {"measurement": "TGI", "value": "> 100", "unit": "µM"}]}
